Experimental data taken from paper PMC8708088.
No constants are given. Whether binding was seen depends on the method and setting. Binding seen in cells or lysates may run through a third protein. Some results given as binding are weak or reduced against the parent protein; the word gives no strength.

The chains behind the UniProt entries cited, without tags or fusion partners.
UniProt P04491: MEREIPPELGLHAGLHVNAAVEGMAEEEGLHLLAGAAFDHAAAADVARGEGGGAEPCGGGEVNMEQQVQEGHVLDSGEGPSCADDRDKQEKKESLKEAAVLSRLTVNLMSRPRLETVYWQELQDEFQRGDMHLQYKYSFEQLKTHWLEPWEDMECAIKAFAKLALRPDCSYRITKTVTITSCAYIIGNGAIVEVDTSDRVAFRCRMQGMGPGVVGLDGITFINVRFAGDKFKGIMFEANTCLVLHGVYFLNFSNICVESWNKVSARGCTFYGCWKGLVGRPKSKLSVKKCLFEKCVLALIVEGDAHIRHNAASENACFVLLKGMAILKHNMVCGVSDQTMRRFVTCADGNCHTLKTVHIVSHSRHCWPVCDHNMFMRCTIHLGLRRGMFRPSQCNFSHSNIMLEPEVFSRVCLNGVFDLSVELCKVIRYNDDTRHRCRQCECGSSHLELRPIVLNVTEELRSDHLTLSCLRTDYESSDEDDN
UniProt P54132: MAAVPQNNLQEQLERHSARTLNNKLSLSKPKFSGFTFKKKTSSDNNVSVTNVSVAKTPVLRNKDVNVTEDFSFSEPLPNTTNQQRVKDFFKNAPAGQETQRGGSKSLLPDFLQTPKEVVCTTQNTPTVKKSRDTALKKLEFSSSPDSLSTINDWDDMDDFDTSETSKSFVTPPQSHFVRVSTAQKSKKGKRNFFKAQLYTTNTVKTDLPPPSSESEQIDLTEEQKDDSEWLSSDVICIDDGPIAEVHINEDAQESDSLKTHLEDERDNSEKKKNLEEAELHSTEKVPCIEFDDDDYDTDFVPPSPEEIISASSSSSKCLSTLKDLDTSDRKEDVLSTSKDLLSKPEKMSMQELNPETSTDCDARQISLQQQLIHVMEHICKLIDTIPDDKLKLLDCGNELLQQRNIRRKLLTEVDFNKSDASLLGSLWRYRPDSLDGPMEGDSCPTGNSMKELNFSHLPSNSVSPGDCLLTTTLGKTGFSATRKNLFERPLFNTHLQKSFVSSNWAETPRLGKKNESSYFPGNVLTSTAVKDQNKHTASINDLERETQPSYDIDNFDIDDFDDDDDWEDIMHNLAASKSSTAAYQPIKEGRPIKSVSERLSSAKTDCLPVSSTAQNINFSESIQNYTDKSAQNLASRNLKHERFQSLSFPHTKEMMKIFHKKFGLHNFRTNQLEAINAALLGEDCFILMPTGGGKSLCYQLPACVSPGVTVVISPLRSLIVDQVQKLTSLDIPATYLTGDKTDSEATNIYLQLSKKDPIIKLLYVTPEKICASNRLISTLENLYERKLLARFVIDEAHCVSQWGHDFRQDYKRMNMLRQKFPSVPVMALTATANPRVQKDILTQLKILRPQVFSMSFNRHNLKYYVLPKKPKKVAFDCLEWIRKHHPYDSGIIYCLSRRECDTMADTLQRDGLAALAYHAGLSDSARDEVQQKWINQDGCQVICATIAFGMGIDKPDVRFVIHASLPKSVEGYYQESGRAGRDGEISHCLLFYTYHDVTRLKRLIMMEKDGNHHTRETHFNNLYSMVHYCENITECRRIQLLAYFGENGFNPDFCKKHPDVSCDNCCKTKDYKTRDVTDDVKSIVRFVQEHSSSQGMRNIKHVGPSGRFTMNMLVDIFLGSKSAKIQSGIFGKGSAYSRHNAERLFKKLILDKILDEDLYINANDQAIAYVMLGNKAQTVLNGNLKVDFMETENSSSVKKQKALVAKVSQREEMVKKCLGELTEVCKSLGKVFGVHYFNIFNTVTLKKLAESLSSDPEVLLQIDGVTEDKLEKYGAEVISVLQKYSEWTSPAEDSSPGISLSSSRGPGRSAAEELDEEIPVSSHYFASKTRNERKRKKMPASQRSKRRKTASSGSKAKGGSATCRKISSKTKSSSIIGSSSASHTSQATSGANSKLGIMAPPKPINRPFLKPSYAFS
UniProt P12004: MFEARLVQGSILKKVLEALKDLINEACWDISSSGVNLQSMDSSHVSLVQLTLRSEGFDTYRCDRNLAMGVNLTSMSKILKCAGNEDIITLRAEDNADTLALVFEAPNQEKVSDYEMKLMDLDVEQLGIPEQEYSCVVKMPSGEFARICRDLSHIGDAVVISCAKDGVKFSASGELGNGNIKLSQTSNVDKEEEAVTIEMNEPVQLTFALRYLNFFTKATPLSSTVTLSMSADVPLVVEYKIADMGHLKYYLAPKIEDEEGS
UniProt O60934: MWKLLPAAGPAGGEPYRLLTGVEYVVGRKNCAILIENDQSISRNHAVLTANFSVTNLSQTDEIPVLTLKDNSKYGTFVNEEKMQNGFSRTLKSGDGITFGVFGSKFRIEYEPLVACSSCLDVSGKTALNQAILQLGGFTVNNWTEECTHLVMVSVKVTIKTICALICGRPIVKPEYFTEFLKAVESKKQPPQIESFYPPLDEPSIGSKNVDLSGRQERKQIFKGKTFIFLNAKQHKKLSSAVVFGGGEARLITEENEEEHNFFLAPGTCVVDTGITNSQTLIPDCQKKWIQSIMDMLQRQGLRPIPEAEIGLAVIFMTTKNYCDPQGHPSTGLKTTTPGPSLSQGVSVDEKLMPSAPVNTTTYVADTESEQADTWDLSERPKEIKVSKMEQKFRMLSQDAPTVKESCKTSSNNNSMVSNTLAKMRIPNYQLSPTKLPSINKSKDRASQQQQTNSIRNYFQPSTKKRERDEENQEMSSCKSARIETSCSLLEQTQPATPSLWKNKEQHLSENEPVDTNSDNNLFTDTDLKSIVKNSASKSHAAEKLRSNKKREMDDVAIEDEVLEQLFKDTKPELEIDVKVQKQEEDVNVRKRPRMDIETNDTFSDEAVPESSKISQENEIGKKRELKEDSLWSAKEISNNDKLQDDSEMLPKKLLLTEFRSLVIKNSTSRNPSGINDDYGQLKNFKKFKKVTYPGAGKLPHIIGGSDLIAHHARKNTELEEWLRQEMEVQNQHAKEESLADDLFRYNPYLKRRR
UniProt P49736: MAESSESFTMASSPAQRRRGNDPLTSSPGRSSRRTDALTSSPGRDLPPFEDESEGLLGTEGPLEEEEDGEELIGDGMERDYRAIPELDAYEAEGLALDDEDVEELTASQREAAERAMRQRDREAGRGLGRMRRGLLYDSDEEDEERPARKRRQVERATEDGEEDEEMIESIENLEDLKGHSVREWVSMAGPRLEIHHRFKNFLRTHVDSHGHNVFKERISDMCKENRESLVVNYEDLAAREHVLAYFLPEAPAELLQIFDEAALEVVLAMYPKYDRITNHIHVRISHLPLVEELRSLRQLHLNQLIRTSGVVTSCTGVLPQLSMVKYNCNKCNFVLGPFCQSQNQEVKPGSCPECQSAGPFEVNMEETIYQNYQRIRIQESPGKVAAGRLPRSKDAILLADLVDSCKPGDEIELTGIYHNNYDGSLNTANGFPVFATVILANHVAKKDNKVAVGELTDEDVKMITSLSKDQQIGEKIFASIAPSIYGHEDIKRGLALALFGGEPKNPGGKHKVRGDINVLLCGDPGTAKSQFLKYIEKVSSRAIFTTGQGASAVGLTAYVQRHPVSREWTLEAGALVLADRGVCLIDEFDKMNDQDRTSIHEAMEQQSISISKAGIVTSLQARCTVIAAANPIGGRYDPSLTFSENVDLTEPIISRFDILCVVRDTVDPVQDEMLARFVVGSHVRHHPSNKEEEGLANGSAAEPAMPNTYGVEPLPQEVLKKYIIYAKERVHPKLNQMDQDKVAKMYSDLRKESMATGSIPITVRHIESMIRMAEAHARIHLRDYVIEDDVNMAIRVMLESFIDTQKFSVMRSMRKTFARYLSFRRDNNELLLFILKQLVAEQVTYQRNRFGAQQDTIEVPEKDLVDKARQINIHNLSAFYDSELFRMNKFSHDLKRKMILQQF
UniProt Q7Z2Z1: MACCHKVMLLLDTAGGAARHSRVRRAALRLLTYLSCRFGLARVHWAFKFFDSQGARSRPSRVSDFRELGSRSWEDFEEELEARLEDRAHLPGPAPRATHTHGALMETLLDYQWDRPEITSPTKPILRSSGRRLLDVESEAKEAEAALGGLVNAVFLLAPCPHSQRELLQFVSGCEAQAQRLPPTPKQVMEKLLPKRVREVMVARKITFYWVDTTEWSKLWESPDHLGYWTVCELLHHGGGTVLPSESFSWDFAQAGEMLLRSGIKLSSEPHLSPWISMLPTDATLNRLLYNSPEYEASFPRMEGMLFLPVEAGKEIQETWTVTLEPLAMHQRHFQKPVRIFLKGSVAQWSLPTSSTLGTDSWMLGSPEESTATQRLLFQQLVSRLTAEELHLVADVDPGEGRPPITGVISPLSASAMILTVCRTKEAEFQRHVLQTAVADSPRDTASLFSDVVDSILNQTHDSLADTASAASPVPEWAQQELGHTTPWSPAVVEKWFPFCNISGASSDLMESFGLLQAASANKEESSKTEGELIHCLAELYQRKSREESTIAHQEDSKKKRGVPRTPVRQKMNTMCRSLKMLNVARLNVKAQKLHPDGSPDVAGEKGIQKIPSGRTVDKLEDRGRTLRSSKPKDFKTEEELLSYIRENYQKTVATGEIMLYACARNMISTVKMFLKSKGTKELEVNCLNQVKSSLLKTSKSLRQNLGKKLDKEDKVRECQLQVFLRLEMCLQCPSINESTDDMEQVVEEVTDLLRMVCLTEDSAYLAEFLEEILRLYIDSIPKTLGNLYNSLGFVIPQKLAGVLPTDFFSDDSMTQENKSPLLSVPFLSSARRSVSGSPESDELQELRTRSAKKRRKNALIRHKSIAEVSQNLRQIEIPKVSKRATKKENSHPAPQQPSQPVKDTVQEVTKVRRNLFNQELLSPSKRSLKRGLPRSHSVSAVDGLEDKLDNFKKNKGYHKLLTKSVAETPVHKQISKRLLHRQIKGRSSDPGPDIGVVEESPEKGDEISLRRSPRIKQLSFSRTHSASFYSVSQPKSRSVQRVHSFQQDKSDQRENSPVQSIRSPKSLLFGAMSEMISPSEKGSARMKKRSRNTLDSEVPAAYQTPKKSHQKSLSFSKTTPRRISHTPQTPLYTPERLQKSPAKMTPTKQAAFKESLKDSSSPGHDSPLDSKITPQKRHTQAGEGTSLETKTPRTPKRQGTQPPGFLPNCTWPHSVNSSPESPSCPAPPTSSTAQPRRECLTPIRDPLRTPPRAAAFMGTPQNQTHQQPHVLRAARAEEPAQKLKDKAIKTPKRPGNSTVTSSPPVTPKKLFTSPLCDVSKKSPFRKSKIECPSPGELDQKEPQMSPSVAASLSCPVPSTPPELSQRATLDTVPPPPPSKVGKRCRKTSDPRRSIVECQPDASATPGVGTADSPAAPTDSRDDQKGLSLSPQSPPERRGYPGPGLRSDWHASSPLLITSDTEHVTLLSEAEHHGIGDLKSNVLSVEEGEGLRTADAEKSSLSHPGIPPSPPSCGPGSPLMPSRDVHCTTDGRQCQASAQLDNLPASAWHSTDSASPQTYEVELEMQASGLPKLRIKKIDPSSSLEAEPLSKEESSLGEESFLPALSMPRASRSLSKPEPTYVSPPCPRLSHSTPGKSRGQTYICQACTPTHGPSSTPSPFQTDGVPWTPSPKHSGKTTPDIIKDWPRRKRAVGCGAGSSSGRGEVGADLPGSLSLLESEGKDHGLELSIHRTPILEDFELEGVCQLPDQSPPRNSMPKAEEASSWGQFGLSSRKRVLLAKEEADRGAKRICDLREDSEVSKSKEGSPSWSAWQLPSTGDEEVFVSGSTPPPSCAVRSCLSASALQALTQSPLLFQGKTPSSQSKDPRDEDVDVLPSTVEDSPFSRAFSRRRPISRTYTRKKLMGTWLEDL

B1: cdc45 (protein, UniProt O75419 1-566)
chain: MFVSDFRKEFYEVVQSQRVLLFVASDVDALCACKILQALFQCDHVQYTLVPVSGWQELETAFLEHKEQFHYFILINCGANVDLLDILQPDEDTIFFVCDTHRPVNVVNVYNDTQIKLLIKQDDDLEVPAYEDIFRDEEEDEEHSGNDSDGSEPSEKRTRLEEEIVEQTMRRRQRREWEARRRDILFDYEQYEYHGTSSAMVMFELAWMLSKDLNDMLWWAIVGLTDQWVQDKITQMKYVTDVGVLQRHVSRHNHRNEDEENTLSVDCTRISFEYDLRLVLYQHWSLHDSLCNTSYTAARFKLWSVHGQKRLQEFLADMGLPLKQVKQKFQAMDISLKENLREMIEESANKFGMKDMRVQTFSIHFGFKHKFLASDVVFATMSLMESPEKDGSGTDHFIQALDSLSRSNLDKLYHGLELAKKQLRATQQTIASCLCTNLVISQGPFLYCSLMEGTPDVMLFSRPASLSLLSKHLLKSFVCSTKNRRCKLLPLVMAAPLSMEHGTVTVVGIPPETDSSDRKNFFGRAFEKAAESTSSRMLHNHFDLSVIELKAEDRSKFLDALISLLS
B2: MCM3 (protein, UniProt P25205 1-808)
chain: MAGTVVLDDVELREAQRDYLDFLDDEEDQGIYQSKVRELISDNQYRLIVNVNDLRRKNEKRANRLLNNAFEELVAFQRALKDFVASIDATYAKQYEEFYVGLEGSFGSKHVSPRTLTSCFLSCVVCVEGIVTKCSLVRPKVVRSVHYCPATKKTIERRYSDLTTLVAFPSSSVYPTKDEENNPLETEYGLSVYKDHQTITIQEMPEKAPAGQLPRSVDVILDDDLVDKAKPGDRVQVVGTYRCLPGKKGGYTSGTFRTVLIACNVKQMSKDAQPSFSAEDIAKIKKFSKTRSKDIFDQLAKSLAPSIHGHDYVKKAILCLLLGGVERDLENGSHIRGDINILLIGDPSVAKSQLLRYVLCTAPRAIPTTGRGSSGVGLTAAVTTDQETGERRLEAGAMVLADRGVVCIDEFDKMSDMDRTAIHEVMEQGRVTIAKAGIHARLNARCSVLAAANPVYGRYDQYKTPMENIGLQDSLLSRFDLLFIMLDQMDPEQDREISDHVLRMHRYRAPGEQDGDAMPLGSAVDILATDDPNFSQEDQQDTQIYEKHDNLLHGTKKKKEKMVSAAFMKKYIHVAKIIKPVLTQESATYIAEEYSRLRSQDSMSSDTARTSPVTARTLETLIRLATAHAKARMSKTVDLQDAEEAVELVQYAYFKKVLEKEKKRKKRSEDESETEDEEEKSQEDQEQKRKRRKTRQPDAKDGDSYDPYDFSDTEEEMPQVHTPKTADSQETKESQKVELSESRLKAFKVALLDVFREAHAQSIGMNRLTESINRDSEEPFSSVEIQAALSKMQDDNQVMVSEGIIFLI
B3: ORC2 (protein, UniProt Q13416 1-577)
chain: MSKPELKEDKMLEVHFVGDDDVLNHILDREGGAKLKKERAQLLVNPKKIIKKPEYDLEEDDQEVLKDQNYVEIMGRDVQESLKNGSATGGGNKVYSFQNRKHSEKMAKLASELAKTPQKSVSFSLKNDPEITINVPQSSKGHSASDKVQPKNNDKSEFLSTAPRSLRKRLIVPRSHSDSESEYSASNSEDDEGVAQEHEEDTNAVIFSQKIQAQNRVVSAPVGKETPSKRMKRDKTSDLVEEYFEAHSSSKVLTSDRTLQKLKRAKLDQQTLRNLLSKVSPSFSAELKQLNQQYEKLFHKWMLQLHLGFNIVLYGLGSKRDLLERFRTTMLQDSIHVVINGFFPGISVKSVLNSITEEVLDHMGTFRSILDQLDWIVNKFKEDSSLELFLLIHNLDSQMLRGEKSQQIIGQLSSLHNIYLIASIDHLNAPLMWDHAKQSLFNWLWYETTTYSPYTEETSYENSLLVKQSGSLPLSSLTHVLRSLTPNARGIFRLLIKYQLDNQDNPSYIGLSFQDFYQQCREAFLVNSDLTLRAQLTEFRDHKLIRTKKGTDGVEYLLIPVDNGTLTDFLEKEEEEA
B4: ORC3 (protein, UniProt Q9UBD5 1-711)
chain: MATSSMSKGCFVFKPNSKKRKISLPIEDYFNKGKNEPEDSKLRFETYQLIWQQMKSENERLQEELNKNLFDNLIEFLQKSHSGFQKNSRDLGGQIKLREIPTAALVLGVNVTDHDLTFGSLTEALQNNVTPYVVSLQAKDCPDMKHFLQKLISQLMDCCVDIKSKEEESVHVTQRKTHYSMDSLSSWYMTVTQKTDPKMLSKKRTTSSQWQSPPVVVILKDMESFATKVLQDFIIISSQHLHEFPLILIFGIATSPIIIHRLLPHAVSSLLCIELFQSLSCKEHLTTVLDKLLLTTQFPFKINEKVLQVLTNIFLYHDFSVQNFIKGLQLSLLEHFYSQPLSVLCCNLPEAKRRINFLSNNQCENIRRLPSFRRYVEKQASEKQVALLTNERYLKEETQLLLENLHVYHMNYFLVLRCLHKFTSSLPKYPLGRQIRELYCTCLEKNIWDSEEYASVLQLLRMLAKDELMTILEKCFKVFKSYCENHLGSTAKRIEEFLAQFQSLDETKEEEDASGSQPKGLQKTDLYHLQKSLLEMKELRRSKKQTKFEVLRENVVNFIDCLVREYLLPPETQPLHEVVYFSAAHALREHLNAAPRIALHTALNNPYYYLKNEALKSEEGCIPNIAPDICIAYKLHLECSRLINLVDWSEAFATVVTAAEKMDANSATSEEMNEIIHARFIRAVSELELLGFIKPTKQKTDHVARLTWGGC
B5: ORC6 (protein, UniProt Q9Y5N6 1-252)
chain: MGSELIGRLAPRLGLAEPDMLRKAEEYLRLSRVKCVGLSARTTETSSAVMCLDLAASWMKCPLDRAYLIKLSGLNKETYQSCLKSFECLLGLNSNIGIRDLAVQFSCIEAVNMASKILKSYESSLPQTQQVDLDLSRPLFTSAALLSACKILKLKVDKNKMVATSGVKKAIFDRLCKQLEKIGQQVDREPGDVATPPRKRKKIVVEAPAKEMEKVEEMPHKPQKDEDLTQDYEEWKRKILENAASAQKATAE

Target: adenovirus 12 early region 1B 55K protein (adenovirus 12) (UniProt P04491)
Assay: co-IP

Molecule | binding
BLM (from UniProt P54132 1-1417) | binds
PCNA (from UniProt P12004 1-261) | no binding
p53 (from UniProt P04637 1-393) | binds
NBS1 (from UniProt O60934 1-754) | binds
MCM2 (from UniProt P49736 1-904) | no binding
TICRR (from UniProt Q7Z2Z1 1-1910) | binds
DNA-PK catalytic subunit (from UniProt P78527 1-4128) | binds
B1 | binds
B2 | binds
B3 | no binding
B4 | binds
B5 | no binding
